Data from article PMC9697025, “Discovery of N-Containing (-)-Borneol Esters as Respiratory Syncytial Virus Fusion Inhibitors” (Pharmaceuticals, 2022).

System: RSV
Assay: Temperature shift assay (virus attachment at 4 °C vs post-binding)
Settings: compound present with RSV at 4 °C for 1 h, then unbound virus and compound washed away, shift to 37 °C

Compound	anti-RSV activity, temperature shift conditions (A)
CC1(C)[C@H]2CC[C@]1(C)[C@H](OC(=O)CCN1CCCCC1)C2 [Compound 6b]	no anti-RSV activity
CN(C)CCC(=O)O[C@@H]1C[C@@H]2CC[C@@]1(C)C2(C)C [Compound 3b]	no anti-RSV activity
CC1(C)[C@H]2CC[C@]1(C)[C@H](OC(=O)CN1CCOCC1)C2 [Compound 5a]	no anti-RSV activity
